Test results taken from the supplement of paper PMC3334620.
In all, about 33,000 sequences were measured (“E-score (-0.5 to 0.5)”: median about -0.021, highest 2% from about 0.32 on). Some of the results follow.

biological target: T1, Zap1 (UniProt P47043); test: PBM E-score (8-mer binding enrichment) (E-score (-0.5 to 0.5)); higher = stronger / more preferred TF binding; most listed sequences are background and not binding sites; settings: protein concentration: 200 nM; construct: GST-full length
T1 sequence: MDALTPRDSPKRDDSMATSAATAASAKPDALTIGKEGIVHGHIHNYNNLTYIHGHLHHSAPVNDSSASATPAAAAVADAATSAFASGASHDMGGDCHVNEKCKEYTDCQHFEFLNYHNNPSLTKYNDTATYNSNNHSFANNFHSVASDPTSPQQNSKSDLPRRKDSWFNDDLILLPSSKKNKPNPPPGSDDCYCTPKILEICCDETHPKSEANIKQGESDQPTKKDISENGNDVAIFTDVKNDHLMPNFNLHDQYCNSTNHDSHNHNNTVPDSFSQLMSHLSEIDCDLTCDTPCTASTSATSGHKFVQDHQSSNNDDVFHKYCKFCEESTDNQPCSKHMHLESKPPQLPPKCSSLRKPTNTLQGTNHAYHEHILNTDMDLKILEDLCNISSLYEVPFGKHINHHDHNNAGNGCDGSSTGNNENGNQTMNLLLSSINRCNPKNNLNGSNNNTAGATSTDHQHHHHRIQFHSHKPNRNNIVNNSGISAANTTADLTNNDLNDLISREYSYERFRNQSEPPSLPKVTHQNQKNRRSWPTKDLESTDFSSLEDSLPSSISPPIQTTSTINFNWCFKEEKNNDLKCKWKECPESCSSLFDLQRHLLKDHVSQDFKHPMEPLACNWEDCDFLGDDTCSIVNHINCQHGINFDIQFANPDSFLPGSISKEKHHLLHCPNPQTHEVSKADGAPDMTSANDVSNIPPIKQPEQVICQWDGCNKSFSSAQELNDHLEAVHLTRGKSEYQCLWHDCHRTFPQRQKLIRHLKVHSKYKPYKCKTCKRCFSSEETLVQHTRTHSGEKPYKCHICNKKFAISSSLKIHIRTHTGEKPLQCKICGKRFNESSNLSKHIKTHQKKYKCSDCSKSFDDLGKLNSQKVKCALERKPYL
How it was run: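 Full-length yeast transcription factors or their DNA-binding domains, GST-tagged and expressed with PURExpress, were applied at about 100-200 nM to universal all-10-mer Agilent arrays. These arrays had been made double-stranded by primer extension on fresh or once-stripped slides. Detection used fluorescent anti-GST, normalisation used masliner, and E-scores for ungapped eight-base words pooled with reverse complements came from the Universal PBM Analysis Suite.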

Point of comparison: CGACAAAC, “PBM E-score” value 0.0937. Against it:
- GTGGGTGA — lower, 0.0723
- ACATAATA — lower, 0.0464
- CCTCAATC — higher, 0.158
- AATCTAGG — lower, 0.0629
- ACAGTGTG — lower, -0.206
- AGCGTGTA — lower, -0.0382
- ACAAAACT — higher, 0.18
- GGAATTCA — lower, -0.0257
- CAAAAGCG — lower, -0.167
- TGACCTCA — higher, 0.333
- CACGGGGG — lower, -0.313
- CTTGGCAA — lower, -0.197
- GGAGTACA — lower, -0.205
- CAATGCTG — lower, -0.214
- AATTAAGT — lower, 0.0821
- CAGATCTG — lower, 0.0443
- AATTCAGA — lower, 0.0774
- CGTCGTAC — lower, -0.137
- ACTGGAGC — lower, -0.208
- GGCACGAA — lower, -0.141
- GGGACATA — lower, -0.0106
- ATCTCATG — lower, 0.0492
- CCTTGTCG — lower, -0.0206
- AGGGCTCC — lower, -0.299
- AACTCAAG — higher, 0.155
- AGTTGGTA — higher, 0.137
- GCGACCCC — higher, 0.191
- ACTTGGCG — lower, -0.113
- CGAAAGCG — lower, -0.108
- AATGGAAC — higher, 0.12
- AAGAATAG — lower, 0.0466
- ACCAGAGC — lower, 0.0649
- GTCGTATA — lower, -0.0837
- CTACATGC — lower, -0.107
- AAGGAGCT — lower, -0.317
- ACTTGGAA — lower, -0.114
- ACGGCAAG — lower, -0.313
- ATCTGGCA — lower, -0.132
- CCAGACGA — lower, -0.0609
- AATGCCAC — lower, -0.164
- AAACTTCG — lower, -0.0089
- AACAGACG — lower, -0.192
- GCAAAGAC — lower, 0.0492
- GCATTCAC — lower, -0.0879
- ACATCGGC — lower, -0.187
- AAGAATAA — lower, 0.0751
- ACAATAGT — lower, 0.052
- GACCCTAC — higher, 0.311
- GGTCGAAA — lower, -0.00628
- CGCGGTAA — higher, 0.302
- AGGGCCTC — higher, 0.112
- AAGGCTGT — lower, -0.0581
- ATAGCGAT — lower, 0.0306
- GGTACTCA — higher, 0.329
- GGTTCGTA — higher, 0.134
- CCCTTCAC — higher, 0.169
- TATCACAA — higher, 0.13
- CTTTTGTC — lower, 0.0509
- GCACCATA — lower, 0.0877
- CTGCCGTA — lower, -0.19
- ACAGCCTC — lower, -0.186
- CGCTCCAC — lower, -0.301
- CATTTTAG — higher, 0.174
- TCTTTACA — higher, 0.169
- ATTCGAAG — lower, 0.0566
- TAGAGCAA — lower, -0.0476
- AGCTAAAA — lower, -0.00168
- ATGGCATG — lower, -0.0339
- TGATCGAA — lower, 0.0647
- GTCGGCGA — lower, -0.325
- CAGCTCAG — lower, -0.283
- ATATTTCC — lower, -0.0308
- CCTGTCCC — lower, -0.161
- AATGGTGT — lower, -0.00805
- TATGCCGA — lower, 0.0602
- CGTGTCCA — lower, -0.137
- GATTAAAC — higher, 0.107
- AGAACCTG — lower, 0.0538
- ATGTCGTA — lower, 0.0191
- TAACGATA — higher, 0.19
- ACCAAGTG — lower, 0.0166
- AGGGCGGA — lower, -0.103
- AGGGACTC — lower, -0.132
- ATGCCTGC — lower, -0.329
- CTACGTAA — lower, -0.0774
- ATGGAGGC — lower, -0.197
- CATACAGA — lower, 0.0322
- AAGTTCGA — lower, 0.0624
- AAGCTTGT — higher, 0.15
- CGAGCTTA — lower, -0.117
- CCTGATCC — lower, -0.191
- GCCGTCAA — lower, -0.161
- AGCGACAA — lower, -0.0783
- AAGGTTTG — higher, 0.176
- GTTTGGCA — lower, -0.0669
- CTTCTGCC — lower, -0.219
- CCTATCTC — lower, -0.031
- GACGGCTC — lower, -0.258
- CTGGAGCA — lower, -0.0643
- TATGGCAA — lower, -0.214
- AAATACCC — higher, 0.328
- GCTCGGCC — lower, -0.218
- GCAAAGCA — lower, -0.231
- CTATCGAC — lower, -0.227
- AATCGGGA — lower, -0.0678
- AGGGCTCA — lower, -0.1
- CTCCCGTC — lower, -0.117
- ACAGTACT — lower, 0.00174
- GCCGAAAA — higher, 0.214
- CTGTACGC — lower, -0.236
- CTAGTGCA — lower, -0.117
- AGTCAACT — lower, -0.328
- ACAAATTC — lower, 0.0554
- CAATCGGC — lower, -0.0345
- CAGTATTC — lower, -0.0283
- CACAATAA — higher, 0.126
- CCAAGCTC — higher, 0.137
- GCCGCACC — lower, 0.0244
- CCTGACAG — lower, 0.0346
- TGTGCCAA — lower, -0.0459
- GCCAAACA — lower, 0.0567
- GGCAACCA — higher, 0.116
- AGATGAAG — lower, -0.216
- GCCTGTTA — lower, -0.186
- ACTCATGG — lower, 0.0485
- AGGGGCTG — lower, -0.0614
- ATTTCTTC — lower, 0.0398
- CCATTGCA — lower, 0.0104
- ACTTACTG — lower, -0.164
- CCGTAGCC — lower, -0.126
- AGTTCTAC — lower, -0.114
- ACCGACCG — lower, -0.0194
- CTCGAACA — lower, 0.0432
- CAATTGAC — lower, -0.0961
- CCACCGCC — lower, 0.0368
- GAGACTCA — lower, -0.0313
- ATTTGGCA — lower, 0.0027
- CTGCTTAA — lower, 0.0787
- CCAGTTAG — lower, 0.00998
- CTGCCCAG — lower, -0.253
- CAGCTAAG — lower, -0.232
- ACAACGTG — lower, -0.0732
- CTGAAGTA — lower, 0.0214
- CGGCAACG — lower, -0.256
- GGCTAGAC — lower, -0.184
- CGGTAATC — higher, 0.119
- CTATCCTA — lower, -0.138
- CTCCACAC — lower, -0.128
- ATGGTTAG — higher, 0.316
- GCAAATCC — lower, -0.0781
- AGCATCCA — lower, -0.117
- GGGGAGCA — lower, -0.395
- CTGCAAAG — lower, -0.132
- AACCGGAG — higher, 0.255
- GCCGCCAC — lower, -0.122
- CCACTTAA — higher, 0.0997
- CCGCTTCC — lower, -0.203
- ACAGTTGC — lower, 0.0663
- ATTTACCA — higher, 0.0973
- AGGTGCTC — lower, -0.177
- CATCTACG — lower, -0.0887
- AAGAGATC — lower, -0.252
- AGCCCCAC — lower, -0.11
- AAACTCGC — lower, -0.0708
- CGTTCAAG — lower, 0.0598
- GGGCTGGA — lower, -0.17
- ACAGTGGC — lower, -0.0712
- GCAGAGGA — lower, -0.0972
- CAGTAACG — lower, 0.0273
- TACCTCGA — higher, 0.233
- AACACAGT — lower, -0.00444
